Each structure is given as a SMILES string. Among all 150,000 compounds or so, about 540 (0.36%) showed an effect of 50% or more. The list shows a part of the results.

The test relates to Plasmodium falciparum. As to the kind of experiment: Primary screen in NF54 nanoGlo assay, in single point, at 2uM, 72h; a lower Z score goes with more inhibition. The test is classed as functional, Erythrocyte. The conditions noted are these: timepoint 72 hour.
On to `COCC(C)(C)NC(=O)c1cnc2cc(=O)[nH]n2c1C`, for which the “% Inhibition” value is -9% and the Z score is given as 1.22.

Regarding `Cc1cc(NS(=O)(=O)c2cnn(C(C)(C)C)c2)n(C)n1`, the “% Inhibition” value is listed as -8% and the Z score was 1.5.

As to `Cc1noc(C)c1CC(=O)N[C@H]1C[C@H](c2cc(=O)[nH]cn2)C1`, the “% Inhibition” value is reported as -13% and the Z score is 1.66.

With `CC(=O)c1cn(CCn2cccn2)c(=O)n(C)c1=O`, the “% Inhibition” value is -5% and the Z score was found to be 0.72.

With `COC[C@H](Nc1nccn2cnnc12)c1cccc(C(F)(F)F)c1`, the “% Inhibition” value is given as -2% and the Z score is 0.33.

Take `CCN(Cc1nccn1C)C(=O)[C@@H](C)Cn1cncn1`: the “% Inhibition” value is reported as 7% and the Z score is -0.87.

Regarding `C[C@H](NCC(=O)N1CCc2ccccc2C1)C1CCOCC1`, the “% Inhibition” value is on record as 5% and the Z score is recorded as -0.78.

As for `CC(C)c1nc(N2C[C@H](C(C)C)[C@@H](N(C)C)C2)no1`, the “% Inhibition” value is given as -8% and the Z score is 1.29.

Take `Fc1ccc2c(c1)C(c1ccccc1)=NNC(c1cccs1)=N2`: the “% Inhibition” value is -39% and the Z score is given as 4.58.

Consider `COc1cc2c(cc1OC)CN(C1CCN(CCn3cc(Cl)cn3)CC1)CC2`, for which the “% Inhibition” value is given as -1% and the Z score turned out to be 0.13.

As to `CN(C)C(=O)[C@H]1CC[C@@H](C(=O)NCc2ccncc2OCC(F)(F)F)O1`, the “% Inhibition” value was -5% and the Z score came to 1.03.

Consider `COc1cc(N)ccc1OCC(F)F`, for which the “% Inhibition” value stood at 37% and the Z score is listed as -4.21.

As for `CC(=O)N1N=C(c2ccncc2)C[C@]1(O)C(F)(F)F`, the “% Inhibition” value is -33% and the Z score stood at 3.92.

`Cc1cccc(-n2cc(CN(C)C(=O)[C@@H](O)COc3ccccc3C)cn2)c1`: the “% Inhibition” value was -15% and the Z score is given as 2.65.

Regarding `Cc1nc(N)nc(N2CCO[C@H](c3ccccc3)C2)c1CCC(=O)O`, the “% Inhibition” value was 0% and the Z score was -0.08.

Turning to `C[C@@](O)(CNC(=O)N1CCNC1=O)Cc1ccsc1`, the “% Inhibition” value turned out to be 17% and the Z score was -1.99.

With `O=C1CC[C@@H](C(=O)N2CCC(c3noc(C(F)F)n3)CC2)n2cccc21`, the “% Inhibition” value was -8% and the Z score was found to be 1.17.

For the compound `Cc1ccc(C2OCCCC2CNC(=O)c2ccc(C)[nH]c2=O)cc1` (configuration not stated), the “% Inhibition” value was -6% and the Z score is 1.1.

In the case of `CCCc1cncnc1N1CCC[C@]2(CCC(=O)N(C(C)C)C2)C1`, the “% Inhibition” value is on record as -5% and the Z score is given as 0.77.

In the case of `Cc1cc(NC(=O)c2ncoc2C(C)C)n(-c2ccncc2)n1`, the “% Inhibition” value is reported as -3% and the Z score came to 0.37.

Consider `COc1cc(NC(=O)CN2C(=O)CCn3nc(-c4cccn4C)cc32)cc(OC)c1OC`, for which the “% Inhibition” value was -4% and the Z score is given as 0.77.

As for `COCCN1CC[C@@]2(CCC1=O)CN(CCc1cccc(F)c1)CCN2C`, the “% Inhibition” value is given as -4% and the Z score is recorded as 0.74.

With `N#Cc1cccc(C(=O)N2CCN(Cc3c[nH]cn3)C[C@H](O)C2)c1`, the “% Inhibition” value is -8% and the Z score is reported as 1.4.

On to `O=C(c1cc(=O)c(OCc2ccccc2Cl)c[nH]1)N1CCOCC1`, for which the “% Inhibition” value came out at 7% and the Z score is on record as -0.85.

For `CCCCOC1CC(N(C)CC(=O)O)C1(C)C` (configuration not stated), the “% Inhibition” value was 2% and the Z score is reported as -0.26.

As for `Cc1ccccc1C(=O)N1CCC[C@H](Oc2ccncc2Cl)C1`, the “% Inhibition” value stood at 2% and the Z score was -0.28.

In the case of `COc1ccc2c(C)c(C(=O)N3CCNC(=O)[C@@H]3Cc3ccccc3)oc2c1`, the “% Inhibition” value was -3% and the Z score is recorded as 0.54.

Consider `CC(=O)N1CC(C(=O)NCc2ccc(-c3ccccc3)c(C)c2)C1`, for which the “% Inhibition” value was -5% and the Z score is 0.67.

As to `C[C@H](O)CNc1cc(N2Cc3cccc(Cl)c3C2)ncn1`, the “% Inhibition” value is given as -10% and the Z score came to 1.38.

`COCC(=O)OCc1csc(NC(C)=O)n1`: the “% Inhibition” value is reported as -3% and the Z score was 0.5.

Consider `COCCN1C[C@@H](C(=O)N2Cc3cnc(C)cc3C2)CCC1=O`, for which the “% Inhibition” value is given as -3% and the Z score came out at 0.35.

As to `CCc1nn(-c2ccc(OC)cc2)c(Oc2ccc(F)cc2F)c1CN(C[C@H]1CCCO1)C(=O)NC(C)C`, the “% Inhibition” value is given as -13% and the Z score was 2.05.

For `Cc1oc(-c2ccn[nH]2)cc1S(=O)(=O)N(C)C[C@H]1CCCCN1C`, the “% Inhibition” value is recorded as -13% and the Z score came to 2.14.

Turning to `O=C(Cn1cc(-c2ccccc2)c2ncnc(N3CCOCC3)c21)NCc1ccc(F)cc1`, the “% Inhibition” value stood at 0% and the Z score was -0.01.

In the case of `Cc1ncoc1C(=O)N1CCC[C@H](C(=O)c2ccc(C(F)(F)F)cc2)C1`, the “% Inhibition” value is recorded as -1% and the Z score is reported as 0.13.

As to `COc1ccccc1C(c1c(O)c2ccccc2[nH]c1=O)c1c(O)c2ccccc2[nH]c1=O`, the “% Inhibition” value was -15% and the Z score amounted to 2.25.

Consider `O=C(Nc1ccc(N2CCOCC2)nc1)C1=Cc2ccccc2OC1`, for which the “% Inhibition” value was -13% and the Z score is 1.38.

As to `C[C@H](Oc1ccccc1Cl)C(=O)N(Cc1ccccc1Cl)c1ccccn1`, the “% Inhibition” value is -4% and the Z score is given as 0.63.

Take `O=C(Cn1c(=O)cnc2ccccc21)N1CCC2(CCO2)CC1`: the “% Inhibition” value is -10% and the Z score worked out at 1.84.

With `COC(=O)c1ccc(N(C(=O)c2cc3ccccc3nc2C)C(C)C)c(C)c1`, the “% Inhibition” value is -8% and the Z score was 0.86.

For the compound `CC1CCN(C(=O)CN(C)CCCn2ccnc2)CC1`, the “% Inhibition” value is listed as -6% and the Z score was determined as 0.98.

These data come from ChEMBL document CHEMBL4888484, “Replenishing the malaria drug discovery pipeline: Screening and hit evaluation of the MMV Hit Generation Library 1 (HGL1) against asexual blood stage Plasmodium falciparum ,using a nano luciferase reporter read-out” (2022).
